{"source": "paper PMC10726135", "note": "Some of the results follow. At the low end of the ranking, values are background and their order means little. Measured with an extract: partners may take part in the binding."}
{"molecular_target": "T1, HNF4alpha8 (COS-7 nuclear extract) (UniProt P41235-5)", "T1 sequence": "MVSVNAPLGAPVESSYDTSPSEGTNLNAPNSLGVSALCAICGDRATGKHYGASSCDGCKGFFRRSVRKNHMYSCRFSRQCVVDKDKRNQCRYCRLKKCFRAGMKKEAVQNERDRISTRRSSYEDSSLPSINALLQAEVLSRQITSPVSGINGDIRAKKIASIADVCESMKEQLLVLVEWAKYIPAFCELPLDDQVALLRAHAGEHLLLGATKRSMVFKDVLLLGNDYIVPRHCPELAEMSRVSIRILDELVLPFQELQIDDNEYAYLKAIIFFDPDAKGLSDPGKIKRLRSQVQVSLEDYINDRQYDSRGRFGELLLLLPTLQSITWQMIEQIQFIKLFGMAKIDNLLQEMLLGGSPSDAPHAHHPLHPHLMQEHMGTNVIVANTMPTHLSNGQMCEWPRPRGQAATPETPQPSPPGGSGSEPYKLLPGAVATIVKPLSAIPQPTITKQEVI", "test": "protein-binding microarray", "conditions": "COS-7 nuclear extract on double-stranded Agilent 4x180k PBM; binding buffer, salt, pH and temperature not given; high values mean tight binding; double strand, one strand shown; sequences stand for … in …GCCTAGGGAGATTAGAGTATCGGTCGA"}
{"sequence": "TAGGTATGATAACCCCCGTCACTGCAAGGC", "binding signal (log2 normalized intensity)": 3.49}
{"sequence": "ACTTGCCACGGAATCCCAGTTCTGATACAC", "binding signal (log2 normalized intensity)": -1.04}
{"sequence": "ACCTGCCTAACATTCTCTAATCAGGTCGCT", "binding signal (log2 normalized intensity)": -1.25}
{"sequence": "TTCAGAAGACTTCCTGGCCTCTCTGCAAAT", "binding signal (log2 normalized intensity)": -0.39}
{"sequence": "GGGACTTCAAAGGCTCCCCTAATCCCTGTG", "binding signal (log2 normalized intensity)": 0.686}
{"sequence": "TGGTTTAGATAAGCACTTCAAAGGTCGTGT", "binding signal (log2 normalized intensity)": 3.77}
{"sequence": "ATGTTCCATGTTAGGGGTTTGTCCAAGAAA", "binding signal (log2 normalized intensity)": 1.95}
{"sequence": "AAATCACACGAAACAAGTAGCAGTTCAAAA", "binding signal (log2 normalized intensity)": -1.32}
{"sequence": "TAAGACAACTTTCTCCTCCAGGACCTTGCC", "binding signal (log2 normalized intensity)": -1.09}
{"sequence": "CCAAAGGGCATTCTGGAGTTTGGAACCAAA", "binding signal (log2 normalized intensity)": 4.28}
{"sequence": "ATTTACATTCCAGAGTAAACGTTTCTCTCT", "binding signal (log2 normalized intensity)": -1.29}
{"sequence": "ATTTAGCCTTTAACCTGCAGTTTCCCTATT", "binding signal (log2 normalized intensity)": 1.47}
{"sequence": "ACACTCCCATCTGCCATCAGTATCCCAGTT", "binding signal (log2 normalized intensity)": 0.239}
{"sequence": "TCCAAAGTCCTTCTAAAGCAAATTTATAGG", "binding signal (log2 normalized intensity)": 0.88}
{"sequence": "CTGTCAAGTCCAAAGTTCTTGGCCAGGCAT", "binding signal (log2 normalized intensity)": 3.1}
{"sequence": "ACTTTGGACCTTTGTGTGTGTGTGTGTGTG", "binding signal (log2 normalized intensity)": 3.49}
{"sequence": "CTTTATACCTGTACGTTACTCTGTACCTCG", "binding signal (log2 normalized intensity)": 1.8}
{"sequence": "GATCATGATTATAAACCTGCCTACATCAAG", "binding signal (log2 normalized intensity)": -1.07}
{"sequence": "AGTTACAGTCACTCCCTATCAACCAAATCA", "binding signal (log2 normalized intensity)": -1.25}
{"sequence": "AGAAAACTCAACTTCTAACTTCCGGCTGGC", "binding signal (log2 normalized intensity)": -1.39}
{"sequence": "CGCTGGGAAGACAGTCTTGGGCACAAAGTA", "binding signal (log2 normalized intensity)": -1.32}
{"sequence": "ACTCCACAAGACCACAAGGTGGCGATAACT", "binding signal (log2 normalized intensity)": -1.27}
{"sequence": "GACATCTGGGAACAAGTTCTGCAGACTCCC", "binding signal (log2 normalized intensity)": -1.37}
{"sequence": "CCCTTCTTCTCCTCCCAACAGGTATGCTCC", "binding signal (log2 normalized intensity)": 1.62}
{"sequence": "CAACCAAGTCCATCTGTATTGCCTCCTTTG", "binding signal (log2 normalized intensity)": 1.28}
{"sequence": "CAGTTTTACAAAGTGGTTGTAGCAGTTCAC", "binding signal (log2 normalized intensity)": 1.46}
{"sequence": "TGTTTTGGAGTTAGCTGTCTTTCTGATAAG", "binding signal (log2 normalized intensity)": 1.04}
{"sequence": "CCTTGCTATGGAGTGGACTTTGGCTTATGC", "binding signal (log2 normalized intensity)": 7.08}
{"sequence": "GCCTCTTAACAGATGAGGACATTTCAGCAA", "binding signal (log2 normalized intensity)": -1.3}
{"sequence": "CAGAGACAATGTGAGCAGGTGTGTGGCATC", "binding signal (log2 normalized intensity)": 0.13}
{"sequence": "AGTAGCATTATCTCCTTGCTGTGCACTTCT", "binding signal (log2 normalized intensity)": 0.943}
{"sequence": "GTGAGGGGTTATGGAGAGTGGAAGACTGCA", "binding signal (log2 normalized intensity)": -1.43}
{"sequence": "TTGCCCCTTCCAAAGTCCACCTCAACCTCC", "binding signal (log2 normalized intensity)": 4.75}
{"sequence": "CACCCGGTTGGCGCCAATACCTGCCGCGCG", "binding signal (log2 normalized intensity)": -1.18}
{"sequence": "TATAGACTGTGATAATGCTCTTAATACTGT", "binding signal (log2 normalized intensity)": -0.0745}
{"sequence": "TTGCCTTGTCCTTAGACAGTAACCCTTGAG", "binding signal (log2 normalized intensity)": 2.42}
{"sequence": "AAAAGGTATTTTTTGAATGACAGTGTCAGG", "binding signal (log2 normalized intensity)": 1.49}
{"sequence": "AGAGCCACCCTCAAATCAGTGAAGGCCTCT", "binding signal (log2 normalized intensity)": -1.38}
{"sequence": "AATGGAAGAATCACAGTGTGGGGCAAATCT", "binding signal (log2 normalized intensity)": -1.06}
{"sequence": "CTAACTGTGTTGAATTAGTACCTCAATGCT", "binding signal (log2 normalized intensity)": -1.05}
{"sequence": "GTGCTTGGACCTGCTCTGTTTTCTTTCGGT", "binding signal (log2 normalized intensity)": 1.24}
{"sequence": "CACAAAGAAGACCCTTTCTTATCTAAGCCA", "binding signal (log2 normalized intensity)": -1.45}
{"sequence": "GGACACCGAGGTCCTGGGGCGATGCTTCCA", "binding signal (log2 normalized intensity)": -1.31}
{"sequence": "GATAGATATGTTGAAGTGACTAAATGAGAA", "binding signal (log2 normalized intensity)": -0.611}
{"sequence": "TCTTCGCCTTGCTTATCTGGGAGGGGGAGG", "binding signal (log2 normalized intensity)": -1.21}
{"sequence": "CATCTGGACTTTACACAGACCTTTACCCAC", "binding signal (log2 normalized intensity)": 3.96}
{"sequence": "CTCTAAGTAATCAATGGTTGCACTCTGGTG", "binding signal (log2 normalized intensity)": 1.8}
{"sequence": "AGGAAACTTAAGTCTCAAAGGTCAGATGAC", "binding signal (log2 normalized intensity)": 5.46}
{"sequence": "TTGGAGACAGTGAGACGCAAGCATATCTCT", "binding signal (log2 normalized intensity)": -1.26}
{"sequence": "GCTAATGTCTCTCTGGCCGGAGGGGAGGTT", "binding signal (log2 normalized intensity)": -0.555}
{"sequence": "CTCCGTTTGCTATGGCCTTTCTTCATTGTT", "binding signal (log2 normalized intensity)": 1.43}
{"sequence": "TCTCCAAAATAGGGTAGTTTGGAGATGCCG", "binding signal (log2 normalized intensity)": 0.621}
{"sequence": "CACTTCTGAAAAAAATATTGAACAAAGATT", "binding signal (log2 normalized intensity)": 0.276}
{"sequence": "GGCCAAAGGTGAAGGAGAATATTAGATGAT", "binding signal (log2 normalized intensity)": 0.51}
{"sequence": "CACCCTTCATAGAATTGAAGAGAGTTAGGG", "binding signal (log2 normalized intensity)": -1.18}
{"sequence": "CTGCTGTAATAAAGCCTTATCTGACCAGGG", "binding signal (log2 normalized intensity)": -0.267}
{"sequence": "AATTGACAAGAGTGTGGCTCAGGTTGCTGC", "binding signal (log2 normalized intensity)": -1.21}
{"sequence": "AAATGCCATAGTCCAAAGTGGCAGTCGCCT", "binding signal (log2 normalized intensity)": 0.79}
{"sequence": "TACACCTGGGGGCTTCCCAACTCCATTATC", "binding signal (log2 normalized intensity)": -1.15}
{"sequence": "GAAGAACTGATTCCAAAGGAAATCACATAG", "binding signal (log2 normalized intensity)": -1.31}
{"sequence": "GGAGGGATCAAGCAGGTGACCTTCGATCAC", "binding signal (log2 normalized intensity)": 6.67}
{"sequence": "TGAAATAGCATGAATTTGGTACCTCCCCCC", "binding signal (log2 normalized intensity)": 5.29}
{"sequence": "GATAGACTTATCTCAGCCTGGCTAAAACCC", "binding signal (log2 normalized intensity)": -1.38}
{"sequence": "CTCTGCCCTTGGCCTACTTAGTCCAGGTTT", "binding signal (log2 normalized intensity)": 1.03}
{"sequence": "TGCTTTCTGACTCTTTCTTTACAGGAAAAA", "binding signal (log2 normalized intensity)": -0.983}
{"sequence": "ACTTGTTCCCTGTCGCTATCTTATCTGGGC", "binding signal (log2 normalized intensity)": 0.524}
{"sequence": "CCAAGCCTAGAAAAACAACTAAAGGAATGC", "binding signal (log2 normalized intensity)": -1.4}
{"sequence": "TGAGACTTTGGACTTTTGAACTAAGGCTGG", "binding signal (log2 normalized intensity)": 5.5}
{"sequence": "ACGAAAGGGACTTTGATCTTCTTACCCCTT", "binding signal (log2 normalized intensity)": 5.81}
{"sequence": "TGAGGAATCTAAGATAAGCAGCATTCCACC", "binding signal (log2 normalized intensity)": -1.12}
{"sequence": "GATTTTAGAAGTCACTCCTTCCTCAAGACC", "binding signal (log2 normalized intensity)": -1.49}
{"sequence": "AGGTCAAAGTTTGCCTTGACCTCTAAAGGG", "binding signal (log2 normalized intensity)": 3.87}
{"sequence": "TACTAAAACAGGGAGCAGGCAGATTTGACC", "binding signal (log2 normalized intensity)": 2.09}
{"sequence": "AGGGCAGAGGTCAGCCCACAGGTCAATCCA", "binding signal (log2 normalized intensity)": 3.09}
{"sequence": "ACCTTTTAGATAGTAGCCCTTTGTATCTTT", "binding signal (log2 normalized intensity)": 2.78}
{"sequence": "GATTAGGAGAGGGAGAGTGAGTGAGTGTGT", "binding signal (log2 normalized intensity)": 1.32}
{"sequence": "CTCTACCCCATGATGATAGCAAACACGATT", "binding signal (log2 normalized intensity)": 1.15}
{"sequence": "ACTGTCTCGGGGATTAGCGATCATGGGTGA", "binding signal (log2 normalized intensity)": -1.34}
{"sequence": "CTGGTTGAAGGGGAGGTTATCTTGGGGCTG", "binding signal (log2 normalized intensity)": -0.0965}
{"sequence": "CCTGAGCCTGGACCTTGGAATGTCAAGATT", "binding signal (log2 normalized intensity)": 3.05}
{"sequence": "CATTTCCTTACAAACACAACATTGAAAGCG", "binding signal (log2 normalized intensity)": -1.07}
{"sequence": "CCCTCTCTTTCTGGAACCTACAGCTGGGGC", "binding signal (log2 normalized intensity)": 0.3}
{"sequence": "CCTGACCTGCCCTTTGTCCCTCCTGCTAGT", "binding signal (log2 normalized intensity)": 3.93}
{"sequence": "ACCTTTTCCCTCCCTCCCAGTACAAAGTTC", "binding signal (log2 normalized intensity)": 5.74}
{"sequence": "GGCTTCTGGACTATGCCTTGAACTTTAAGG", "binding signal (log2 normalized intensity)": 2.85}
{"sequence": "GTCTGTTGACCTTTGGCCAAGGGCAGTGTT", "binding signal (log2 normalized intensity)": 7.73}
{"sequence": "TGACCGATAACCCTCCTGAACATAATTGCA", "binding signal (log2 normalized intensity)": -1.27}
{"sequence": "GTTTTCACTGCTGGGTTTCTTCCCTAATGG", "binding signal (log2 normalized intensity)": 0.834}
{"sequence": "GTTAAAGCACAGTGTCTTTGTTTGGAAAAG", "binding signal (log2 normalized intensity)": 0.547}
{"sequence": "CATCATTCCGTGACTGAGCTCGCGCCGGGC", "binding signal (log2 normalized intensity)": -1.38}
{"sequence": "TTTGGTGTTACCTTTGGACTGTCCTTTGCT", "binding signal (log2 normalized intensity)": 5.06}
{"sequence": "GTCGGGAGGTAGGGGTGGCGGGTTGGAGGT", "binding signal (log2 normalized intensity)": -0.103}
{"sequence": "GCTTTGAGACACCTGGCCAAGTACAGCCTG", "binding signal (log2 normalized intensity)": -1.39}
